Numbering of substitutions follows the chain as printed; changes in the protein carry UniProt numbers. This is one part of the list.

To fix the notation:
T1: RBFOX1 RRM (Homo sapiens, UniProt Q9NWB1 109-208)
T1 sequence: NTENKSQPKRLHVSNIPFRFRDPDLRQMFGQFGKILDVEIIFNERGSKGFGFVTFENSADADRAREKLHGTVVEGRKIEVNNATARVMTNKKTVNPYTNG

B1: AAGGUGU (DNA:RNA)
RNA: GGGAGACCGGAAUUCAGAUUGUCCAAGGUGUUUAAAUCCCGUCGUAGCCACCA
DNA 1: CAATCTGAATTCCGGTCTCCC
DNA 2: TGGTGGCTACGACGGGATT
B2: ACAUACA (DNA:RNA)
RNA: B1 RNA with A26C, G27A, G28U, U29A, G30C, U31A
DNA 1: CAATCTGAATTCCGGTCTCCC
DNA 2: TGGTGGCTACGACGGGATT
B3: UACGUGG (DNA:RNA)
RNA: B1 RNA with A25U, G27C, U31G
DNA 1: CAATCTGAATTCCGGTCTCCC
DNA 2: TGGTGGCTACGACGGGATT
B4: CUGCUUG (DNA:RNA)
RNA: B1 RNA with A25C, A26U, G28C, G30U, U31G
DNA 1: CAATCTGAATTCCGGTCTCCC
DNA 2: TGGTGGCTACGACGGGATT
B5: GUAGCCC (DNA:RNA)
RNA: B1 RNA with A25G, A26U, G27A, U29C, G30C, U31C
DNA 1: CAATCTGAATTCCGGTCTCCC
DNA 2: TGGTGGCTACGACGGGATT
B6: CUUGCUC (DNA:RNA)
RNA: B1 RNA with A25C, A26U, G27U, U29C, G30U, U31C
DNA 1: CAATCTGAATTCCGGTCTCCC
DNA 2: TGGTGGCTACGACGGGATT
B7: AUUAACA (DNA:RNA)
RNA: B1 RNA with A26U, G27U, G28A, U29A, G30C, U31A
DNA 1: CAATCTGAATTCCGGTCTCCC
DNA 2: TGGTGGCTACGACGGGATT
B8: AGAGCGA (DNA:RNA)
RNA: B1 RNA with A26G, G27A, U29C, U31A
DNA 1: CAATCTGAATTCCGGTCTCCC
DNA 2: TGGTGGCTACGACGGGATT
B9: GCUCUUG (DNA:RNA)
RNA: B1 RNA with A25G, A26C, G27U, G28C, G30U, U31G
DNA 1: CAATCTGAATTCCGGTCTCCC
DNA 2: TGGTGGCTACGACGGGATT
B10: GGCCCAU (DNA:RNA)
RNA: B1 RNA with A25G, A26G, G27C, G28C, U29C, G30A
DNA 1: CAATCTGAATTCCGGTCTCCC
DNA 2: TGGTGGCTACGACGGGATT
B11: CCAAUCG (DNA:RNA)
RNA: B1 RNA with A25C, A26C, G27A, G28A, G30C, U31G
DNA 1: CAATCTGAATTCCGGTCTCCC
DNA 2: TGGTGGCTACGACGGGATT
B12: AUCUGUC (DNA:RNA)
RNA: B1 RNA with A26U, G27C, G28U, U29G, G30U, U31C
DNA 1: CAATCTGAATTCCGGTCTCCC
DNA 2: TGGTGGCTACGACGGGATT
B13: GCGUAGA (DNA:RNA)
RNA: B1 RNA with A25G, A26C, G28U, U29A, U31A
DNA 1: CAATCTGAATTCCGGTCTCCC
DNA 2: TGGTGGCTACGACGGGATT
B14: UGAUCGG (DNA:RNA)
RNA: B1 RNA with A25U, A26G, G27A, G28U, U29C, U31G
DNA 1: CAATCTGAATTCCGGTCTCCC
DNA 2: TGGTGGCTACGACGGGATT
B15: UUACGGU (DNA:RNA)
RNA: B1 RNA with A25U, A26U, G27A, G28C, U29G
DNA 1: CAATCTGAATTCCGGTCTCCC
DNA 2: TGGTGGCTACGACGGGATT
B16: GCUUUUU (DNA:RNA)
RNA: B1 RNA with A25G, A26C, G27U, G28U, G30U
DNA 1: CAATCTGAATTCCGGTCTCCC
DNA 2: TGGTGGCTACGACGGGATT
B17: UUGCCCA (DNA:RNA)
RNA: B1 RNA with A25U, A26U, G28C, U29C, G30C, U31A
DNA 1: CAATCTGAATTCCGGTCTCCC
DNA 2: TGGTGGCTACGACGGGATT
B18: GCAGUGU (DNA:RNA)
RNA: B1 RNA with A25G, A26C, G27A
DNA 1: CAATCTGAATTCCGGTCTCCC
DNA 2: TGGTGGCTACGACGGGATT
B19: CAGAAAG (DNA:RNA)
RNA: B1 RNA with A25C, G28A, U29A, G30A, U31G
DNA 1: CAATCTGAATTCCGGTCTCCC
DNA 2: TGGTGGCTACGACGGGATT
B20: UCAGUAC (DNA:RNA)
RNA: B1 RNA with A25U, A26C, G27A, G30A, U31C
DNA 1: CAATCTGAATTCCGGTCTCCC
DNA 2: TGGTGGCTACGACGGGATT
B21: UGUUAUC (DNA:RNA)
RNA: GGGAGACCGGAAUUCAGAUUGUCCUGUUAUCUUAAAUCCCGUCGUAGCCACCA
DNA 1: CAATCTGAATTCCGGTCTCCC
DNA 2: TGGTGGCTACGACGGGATT
B22: GUCCCCU (DNA:RNA)
RNA: B1 RNA with A25G, A26U, G27C, G28C, U29C, G30C
DNA 1: CAATCTGAATTCCGGTCTCCC
DNA 2: TGGTGGCTACGACGGGATT
B23: GCUAUAC (DNA:RNA)
RNA: B21 RNA with U25G, G26C, U28A, A29U, U30A
DNA 1: CAATCTGAATTCCGGTCTCCC
DNA 2: TGGTGGCTACGACGGGATT
B24: ACUGGGU (DNA:RNA)
RNA: B1 RNA with A26C, G27U, U29G
DNA 1: CAATCTGAATTCCGGTCTCCC
DNA 2: TGGTGGCTACGACGGGATT
B25: UUUCCUC (DNA:RNA)
RNA: B21 RNA with G26U, U28C, A29C
DNA 1: CAATCTGAATTCCGGTCTCCC
DNA 2: TGGTGGCTACGACGGGATT
B26: CGGAGUC (DNA:RNA)
RNA: B21 RNA with U25C, U27G, U28A, A29G
DNA 1: CAATCTGAATTCCGGTCTCCC
DNA 2: TGGTGGCTACGACGGGATT
B27: CCUGAAC (DNA:RNA)
RNA: B21 RNA with U25C, G26C, U28G, U30A
DNA 1: CAATCTGAATTCCGGTCTCCC
DNA 2: TGGTGGCTACGACGGGATT
B28: ACCCCAG (DNA:RNA)
RNA: B1 RNA with A26C, G27C, G28C, U29C, G30A, U31G
DNA 1: CAATCTGAATTCCGGTCTCCC
DNA 2: TGGTGGCTACGACGGGATT
B29: GUAAAAG (DNA:RNA)
RNA: B21 RNA with U25G, G26U, U27A, U28A, U30A, C31G
DNA 1: CAATCTGAATTCCGGTCTCCC
DNA 2: TGGTGGCTACGACGGGATT
B30: GCCGUAG (DNA:RNA)
RNA: B1 RNA with A25G, A26C, G27C, G30A, U31G
DNA 1: CAATCTGAATTCCGGTCTCCC
DNA 2: TGGTGGCTACGACGGGATT
B31: UGCUAUA (DNA:RNA)
RNA: B21 RNA with U27C, C31A
DNA 1: CAATCTGAATTCCGGTCTCCC
DNA 2: TGGTGGCTACGACGGGATT

The test addresses T1, RBFOX1 RRM. Description: EMSA; HiTS-Eq, 1 nM pool, 10 min; buffer printed only for the single-RNA assays: 10 mM Tris pH 7.5, 150 mM NaCl, 3.4 mM EDTA, 0.001% NP-40, 30 C. To be noted: tags: His6 N-terminal (pET28a); label: 5' 32P. An outline of the steps:
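Purified RbFox RRM, wild type or mutant, was incubated for 10 min in 50 µL with 1 nM of a 5′-radiolabelled RNA pool carrying 7 randomized nucleotides, whose flanks were annealed to DNA oligonucleotides, over a series of increasing protein concentrations. Unbound RNA was resolved on 8% native PAGE, cut out, reverse-transcribed, barcoded by PCR and sequenced on an Illumina HiSeq 2500. Relative association constants were derived from changes in read counts for each RNA species versus the control reaction and normalised to the cognate motif.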
As for B1, the binding signal was 0.012 KA relative to UGCAUGU.

For the molecule B2, the binding signal was 0.00154 KA relative to UGCAUGU.

Consider B3, for which the binding signal is 0.00795 KA relative to UGCAUGU.

In the case of B4, the binding signal was 0.0459 KA relative to UGCAUGU.

B5: the binding signal was 0.00684 KA relative to UGCAUGU.

As for B6, the binding signal is 0.0175 KA relative to UGCAUGU.

Regarding B7, the binding signal is 0.000726 KA relative to UGCAUGU.

In the case of B8, the binding signal is 0.0101 KA relative to UGCAUGU.

With B9, the binding signal was 0.014 KA relative to UGCAUGU.

For B10, the binding signal is 0.00262 KA relative to UGCAUGU.

As to B11, the binding signal is 0.00227 KA relative to UGCAUGU.

With B12, the binding signal is 0.00822 KA relative to UGCAUGU.

Turning to B13, the binding signal is 0.0101 KA relative to UGCAUGU.

On to B14, for which the binding signal is 0.0143 KA relative to UGCAUGU.

On to B15, for which the binding signal was 0.00767 KA relative to UGCAUGU.

Turning to B16, the binding signal is 0.013 KA relative to UGCAUGU.

B17: the binding signal was 0.0104 KA relative to UGCAUGU.

As to B18, the binding signal is 0.0135 KA relative to UGCAUGU.

Turning to B19, the binding signal is 0.00694 KA relative to UGCAUGU.

With B20, the binding signal is 0.00471 KA relative to UGCAUGU.

Regarding B21, the binding signal is 0.0131 KA relative to UGCAUGU.

For B22, the binding signal was 0.00478 KA relative to UGCAUGU.

Consider B23, for which the binding signal is 0.00509 KA relative to UGCAUGU.

In the case of B24, the binding signal was 0.0133 KA relative to UGCAUGU.

As for B25, the binding signal was 0.0117 KA relative to UGCAUGU.

With B26, the binding signal is 0.0303 KA relative to UGCAUGU.

Consider B27, for which the binding signal was 0.011 KA relative to UGCAUGU.

In the case of B28, the binding signal is 0.00285 KA relative to UGCAUGU.

In the case of B29, the binding signal is 0.00513 KA relative to UGCAUGU.

For B30, the binding signal was 0.0118 KA relative to UGCAUGU.

Turning to B31, the binding signal was 0.0144 KA relative to UGCAUGU.
